Test results reported in PubChem BioAssay AID1645887 (National Center for Advancing Translational Sciences (NCATS), 2021).
“And” between values parts separate entries of the source, which are not always exact repeats. Identical values can stand only once. In all, about 16,000 compounds went through this assay and about 40 (0.2%) were called active. Roughly 1% stayed inconclusive and do not appear here. Calls follow the shape of the dose curve; as a rule, active = well fitted activation curve with a large enough effect; inconclusive = small, poorly fitted or top-dose-only effect, or another doubt; inactive = no such curve, though single readings can be large or run the other way. The list shows a part of the results.

What follows are compounds tested against Rap guanine nucleotide exchange factor 4 (Homo sapiens) (UniProt Q8WZA2) (assay: Validation qHTS for agonist of cAMP-regulated guanine nucleotide exchange factor 4 (EPAC2)). Details: EPAC2 Rap1B BODIPY-GDP exchange, fluorescence; activation: hits give high values.
UniProt Q8WZA2, sequence (Q8WZA2 whole entry, looked up): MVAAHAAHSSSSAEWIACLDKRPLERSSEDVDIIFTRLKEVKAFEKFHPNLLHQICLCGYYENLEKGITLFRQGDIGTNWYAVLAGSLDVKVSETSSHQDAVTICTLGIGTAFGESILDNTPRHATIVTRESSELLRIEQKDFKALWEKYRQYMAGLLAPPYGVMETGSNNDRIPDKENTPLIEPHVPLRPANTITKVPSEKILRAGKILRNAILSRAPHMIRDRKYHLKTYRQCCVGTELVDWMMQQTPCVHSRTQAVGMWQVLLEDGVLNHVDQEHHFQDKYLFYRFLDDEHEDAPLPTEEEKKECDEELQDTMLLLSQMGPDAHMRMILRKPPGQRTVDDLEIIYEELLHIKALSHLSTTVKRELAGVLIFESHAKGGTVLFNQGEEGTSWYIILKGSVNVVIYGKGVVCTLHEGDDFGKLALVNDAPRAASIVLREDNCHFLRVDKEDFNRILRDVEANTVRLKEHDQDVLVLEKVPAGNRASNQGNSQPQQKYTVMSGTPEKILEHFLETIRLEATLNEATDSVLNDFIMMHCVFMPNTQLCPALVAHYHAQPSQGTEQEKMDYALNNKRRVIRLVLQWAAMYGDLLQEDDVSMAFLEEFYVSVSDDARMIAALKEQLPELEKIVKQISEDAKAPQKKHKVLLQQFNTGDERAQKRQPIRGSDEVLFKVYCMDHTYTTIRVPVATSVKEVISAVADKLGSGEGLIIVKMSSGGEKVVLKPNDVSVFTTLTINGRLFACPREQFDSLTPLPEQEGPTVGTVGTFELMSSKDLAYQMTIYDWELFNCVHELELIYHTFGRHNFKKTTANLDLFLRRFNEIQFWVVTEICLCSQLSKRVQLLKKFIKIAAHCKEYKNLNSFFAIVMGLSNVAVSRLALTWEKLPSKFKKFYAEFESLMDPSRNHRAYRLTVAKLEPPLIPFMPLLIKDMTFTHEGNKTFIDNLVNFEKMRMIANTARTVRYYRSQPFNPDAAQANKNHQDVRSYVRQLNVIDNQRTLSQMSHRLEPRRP
Outline: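 Signal normalized against 6.5 mM cAMP as agonist control. Mix of EPAC2 (100 nM), RAP1B-BODIPY-GDP (250 nM) and GDP (50 uM) was read kinetically at 480/540 nm, every 5 min over 30 min, after 5 min room-temperature incubation with compound.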
% is scaled to controls: 0 for no effect and ±100 for the full control effect.
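Also: exchange makes BODIPY-GDP fluorescence drop when released from Rap1B; series mostly up to about 150 µM.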

activation, inactive:
O=C(NCCN1CCOCC1)c1cnn(-c2nccc(-c3cc4ccccc4o3)n2)c1C1CC1 -3.65%
NC(=O)c1ccc(-c2nc(-c3ccc4c(c3)OCO4)c(-c3ccccn3)[nH]2)cc1 -5.42%
COc1ccc(/C=C/C(=O)N2CCc3c(cnc(C)c3CNS(=O)(=O)c3cccs3)C2)cc1 11.1%
Cc1ccc(S[C@@H](CCN2CC[C@H](C(C)(C)C)CCC2=O)c2ccccc2)cc1 -6.01%
Cc1nc2cncnc2n(Cc2ccccc2)c1=O -6.53%
COCC(=O)N1CCC2(CCCN(C(=O)Nc3cccc(C#N)c3)C2)CC1 -11.3%
CC(=O)Oc1cc(C(C)C)c(OCCN(C)C)cc1C -30.2% and -26.3%
CCn1c(C)nc2cc(NS(=O)(=O)c3ccccc3)cc(C(=O)N3C[C@@H](C)O[C@@H](C)C3)c21 -0.794%
NS(=O)(=O)c1ccc(NC(=O)CCC(=O)O)cc1 -0.157%
O=C(O)c1cc(O)c2c(c1)[C@H]([C@H]1c3cc(C(=O)O)cc(O)c3C(=O)c3c(O[C@@H]4O[C@H](CO)[C@@H](O)[C@H](O)[C@H]4O)cccc31)c1cccc(O[C@@H]3O[C@H](CO)[C@@H](O)[C@H](O)[C@H]3O)c1C2=O -17.4%
COc1cccc(-c2ccc3ncnc(NC4CCNCC4)c3c2)c1 -10.8%
Cn1c(SCC2CCCO2)nnc1C1CCN(Cc2ccco2)CC1 (stereo not given) -3.37%
CC(=O)N1CCC[C@H]1C(=O)N1CCc2c(cnc(C)c2CNC(=O)/C=C/c2cccs2)C1 -2.81%
COc1cccc(C(=O)NCC2Cc3cccc(-c4ncccn4)c3O2)c1OC (stereo not given) -16%
CC[N+](C)(CC)CC(=O)Nc1c(C)cccc1C -10.2%
Cc1cccc(C)c1NC(=O)NC1=CCCN1C -7.65%
CC(C)CN1CCC2(CC1)CCN(S(=O)(=O)c1ccccc1)CC2 -8.17%
CC(c1cc2ccccc2s1)N(O)C(N)=O (stereo not given) 5.47%
COc1ccccc1CN1CCC2(CC1)CCN(C(=O)c1cc(C(F)(F)F)cc(C(F)(F)F)c1)CC2 -25.7%
COc1ccc(-n2c(=O)cnc3cnc(OC)nc32)cc1 -8.13%
N#CCCn1c(=O)c(-c2cc(F)cc(F)c2)nc2cnc(OCc3ccccc3)nc21 -11.8%
COc1ccc(-c2nc3cnc(N(C)C)nc3n(C[C@H]3CCCO3)c2=O)cc1 0.561%
Nc1ccn(C[C@@H](CO)OCP(=O)(O)O)c(=O)n1 -6.59%
COc1cc(O)c(C(C)=O)c(OC)c1 -10.6%
O=C(c1cnccn1)N1CCC2(CCCN(c3ccccc3)C2)CC1 1.28%
Cc1ccccc1N=C1Nc2ccccc2N[C@]12C[C@H]1CCCC(=O)N3CC[C@@H](C2)[C@@H]13 -3.8%
CC[C@@H]1CN2CCc3cc(OC)c(OC)cc3[C@@H]2C[C@@H]1C[C@H]1NCCc2cc(OC)c(OC)cc21 -4.51%
CN1CCCC(CN2c3ccccc3Sc3ccccc32)C1 (stereo not given) -8.13%
COc1ccccc1CN1Cc2cccc3c2[C@@H](CC1=O)[C@H](O)[C@H](O)C3 -23%
O=C1c2ccccc2C(=O)c2c(NCCc3ccc(O)cc3)ccc(NCCc3ccc(O)cc3)c21 5.93%
COc1cc2c(cc1OC)C1C(=O)c3ccc4c(c3OC1CO2)C=CC(C)(C)O4 (stereo not given) -2.97%
CCCS(=O)(=O)NCc1c(C)ncc2c1CCN(C(=O)c1cccc(Cl)c1F)C2 -0.408%
CN(C)C1CCC(CC2CCc3ccccc32)CC1 (stereo not given) -13.8%
N#Cc1ccc(CN2CC[C@@]3(CCCN(C(=O)c4cnccn4)C3)C2)cc1 -8.6%
N#CCCn1c(=O)c(-c2cc(F)cc(F)c2)nc2cnc(N3CCOCC3)nc21 -0.196%
C=CC(COCc1ccccc1)N([C@@H](Cc1ccccc1)C(=O)OC)S(=O)(=O)c1ccccc1Br (stereo not given in full) -15.9%
O=c1c(-c2ccc(F)cc2)nc2cnc(N3CCNCC3)nc2n1Cc1cccs1 11.6%
O=C1CCN(Cc2ccc([N+](=O)[O-])cc2)CCN1CCO -10.8%
O=C(NC1CCCCC1)[C@@H]1CC=C[C@@H]2CCN(C3CCCCC3)C(=O)[C@@H]21 1.62%
COc1ccc(CN2CCC(=O)N([C@H](CO)c3ccccc3)CC2)cc1OC -3.29%
CN(C)CCCOc1nn(Cc2ccccc2)c2ccccc12 -10.4%
CCCN1CCC(=O)N(CCC#N)CC1 -16.2%
O=C1c2c(O)cc(O)cc2OC(c2ccc(O)c(O)c2)C1O (stereo not given) -3.13% and -55.1%
CCc1ccc2c(c1)N(CC(C)CN(C)C)c1ccccc1S2 (stereo not given) -8.78%
CC1CN(CCC(=O)NCc2ccc3ncccc3c2)Cc2cc(Cl)ccc2O1 (stereo not given) 2.44%
CC(C)NC[C@@H](O)COc1cccc2[nH]ccc12 0.895%
CCN1\C(=C/C=C/C=C/c2sc3ccccc3[n+]2CC)Sc2ccccc21 -24.7% and -11%
CNc1ccnc(-c2ccccc2CN(C)C)n1 4.85%
O=C(O)COc1cccc(-c2ocnc2-c2nc(-c3ccccc3)c(-c3ccccc3)o2)c1 -11.2%
[O]=[Bi][O][Bi]=[O] -2.73%
S=C=Nc1ccc(N=C=S)cc1 -21.6%
Cc1cnc(-n2ncc(C(=O)NCC(C)(C)N3CCOCC3)c2C)nc1-c1cccs1 -8.75%
O=C(O)COc1nn(Cc2ccccc2)c2ccccc12 -18.1%
CO[C@]12CC(COC(=O)c3cncc(Br)c3)CN(C)[C@@H]1Cc1cn(C)c3cccc2c13 (stereo not given in full) -9.16%
COc1cccc(Nc2ncc3nc(-c4ccc(Cl)cc4)c(=O)n(C4CC4)c3n2)c1 -3.95%
